The results in this text go back to article PMC5515408.

The list shows a part of the results. At the low end of the ranking, values are background and their order means little.

The target in this test is MAX:MAX (p21) (UniProt P61244-2). As to the kind of experiment: protein-binding microarray (anti-MAX antibody). As to conditions: PBM: 15 mM Tris-HCl pH 7.5, 100 mM KCl, 0.075% NP40, 7.5 mM beta-mercaptoethanol, 375 ng/ul BSA, 8 ng/ul poly(dA-dT):(dA-dT), 550 ng complex, 60 min, room …; high values mean tight binding; double strand, one strand shown; sequences stand for … in CCGGC…TTAATAGCTAAGATTACTATATCGACG
For TGAAACGTGGTC, the binding signal (log2 normalized fluorescence) turned out to be 3.11.
Regarding TGATGTGTGGTA, the binding signal (log2 normalized fluorescence) was determined as 0.648.
The figure for TCATACGTGGTA is 1.88; for TGAGGGAGCGTA it is -0.434; for TGAGCCCAAGTA it is -1.04.
The figure for TGATTGCTGGTA is -0.488.
The figure for TGACGGACGGTA is -0.374.
TGATCGTCTGTA: the binding signal (log2 normalized fluorescence) was -0.526.
The same measure for TGACTCCCCGTA: -0.408; for TGATTTGGAGTA: -1.23.
The same measure for TGAGCTCCAGTA: -0.971; for TGATACGTTGTA: -0.424.
The same measure for TGATATAATGTA: -0.664; for TGACCTCGTGTA: 3.27; for TGATACTCGGTA: -0.83.
On to TGATCATCGGTA, for which the binding signal (log2 normalized fluorescence) was -0.564.
Sequence TGAATGATCGTA returned a binding signal (log2 normalized fluorescence) of 0.0685.
The same measure for TGAAGACATGTA: 0.506; for TGAAGTACAGTA: -0.401.
The figure for CAACACGTTGTA is 3.07.
The same measure for TGATCCGGCGTA: -1; for TGACACGTGCAT: 2.85.
Regarding TGATCTCCTGTA, the binding signal (log2 normalized fluorescence) is -0.703.
Sequence TGAACATCCGTA showed a binding signal (log2 normalized fluorescence) of -0.276.
The sequence TGAGTCTAGGTA registered a binding signal (log2 normalized fluorescence) of -1.11.
The same measure for TGAAGCGAAGTA: -0.471.
The figure for TGACACGTAGGA is 1.2; for TGAGACCCAGTA it is -0.803; for TGAACGGGAGTA it is -0.832.
The same measure for TGCCACTTGGTG: 0.429; for TGATACAGGGTA: -0.572.
TGATGATAGGTA came in with a binding signal (log2 normalized fluorescence) of -0.382.
In turn, TCCCACTTGGTA yielded a binding signal (log2 normalized fluorescence) of 0.301.
On to TGAACGTCCGTA, for which the binding signal (log2 normalized fluorescence) is -0.275.
TGAGTAGATGTA showed a binding signal (log2 normalized fluorescence) of -0.95.
TGACTCTGTGTA showed a binding signal (log2 normalized fluorescence) of -0.824.
The same measure for TGACTATTCGTA: -0.877.
The same measure for TGCCACGTGCGA: 3.47.
The figure for TGACACGTCAGA is 0.975; for TGAACCTTTGTA it is -0.735; for TGACCGAAAGTA it is -0.356.
Sequence TGGCACGTGGCA displayed a binding signal (log2 normalized fluorescence) of 3.03.
The same measure for TGAAGATGAGTA: -0.347; for GTGACGATCAGC: 2.36; for TGACCAAATGTA: -0.188.
TGAGGAAATGTA yielded a binding signal (log2 normalized fluorescence) of -0.626.
The figure for TGATCCCCGGTA is -0.987; for TGAAACGCCGTA it is 0.0516; for TGAGCTATAGTA it is -1.09.
The same measure for TGACGGCAAGTA: -0.0997.
TGACACGAATTA yielded a binding signal (log2 normalized fluorescence) of 0.693.
TGATAACAGGTA yielded a binding signal (log2 normalized fluorescence) of -0.565.
The figure for TGAGCACTCGTA is -0.121; for TCACACGTGTTA it is 3.29; for TGACGGTTCGTA it is -0.498.
TATCACCTGGTA registered a binding signal (log2 normalized fluorescence) of 2.25.
TGAGACGTAATA displayed a binding signal (log2 normalized fluorescence) of -0.894.
The same measure for TGTCACGTGTTC: 3.22.
The figure for TGATACGAGGTC is -0.219; for TGAGACTATGTA it is -0.713.
The same measure for TGAAGGAGTGTA: -0.165; for TGGCACTGGGTA: -0.146.
TGACCGGTGGTA had a binding signal (log2 normalized fluorescence) of 0.694.
The figure for TGAAAGACAGTA is -0.553; for TGATTCCGTGTA it is -0.11.
The same measure for TGACACTTCGTA: -0.198.
The same measure for TCACACGTTTTA: 3.25; for TGACTGGTCGTA: -0.108; for TGACCTGCAGTA: 0.114.
The sequence TGACACGTGTCC returned a binding signal (log2 normalized fluorescence) of 3.16.
The same measure for TGACATGATGTA: 1.46; for TGACAAAAAGTA: -0.762; for CGGCACGTGGTG: 3.21.
The figure for TGACAGGAGGTA is 0.803.
In turn, TGAGATTGCGTA yielded a binding signal (log2 normalized fluorescence) of -0.755.
The same measure for TGAGCTTAAGTA: -1.07; for TGACTTATGGTA: 0.327; for TGATGGAATGTA: 0.0342.
As to TGACTGCCGGTA, the binding signal (log2 normalized fluorescence) is -0.407.
In turn, TGAAGACGAGTA returned a binding signal (log2 normalized fluorescence) of -0.411.
The figure for TGAGTGACGGTA is -0.385.
The same measure for TGTCACGAGGTA: 3.25.
TGATTGGACGTA came in with a binding signal (log2 normalized fluorescence) of -0.887.
On to TGAACGCGCGTA, for which the binding signal (log2 normalized fluorescence) turned out to be 1.01.
The same measure for TGAAATTCCGTA: -1.06.
The sequence TGAGCTGGTGTA displayed a binding signal (log2 normalized fluorescence) of -0.463.
The sequence TGAGCTAATGTA registered a binding signal (log2 normalized fluorescence) of -0.869.
The same measure for TGATGATAAGTA: -0.382; for TGATGCCGAGTA: -0.628.
Sequence TGAGATATTGTA had a binding signal (log2 normalized fluorescence) of -1.18.
The same measure for TGACCAGTCGTA: -0.667; for TGAACTGACGTA: -0.386; for TGACAGGAAGTA: -0.344.
The same measure for TGATTGTGCGTA: -0.0131; for TGAATTCCTGTA: -0.746; for TGACGTCACGTA: 0.494.
The figure for TGAGGTCTTGTA is -0.72.
On to TGAAGGATAGTA, for which the binding signal (log2 normalized fluorescence) is -0.814.
The same measure for TGTCACCCGGTA: 0.369.
The same measure for TGATGAAAGGTA: -0.455; for TGATACGAGGGA: -0.436.
Consider ATAATGCGCTTA, for which the binding signal (log2 normalized fluorescence) worked out at 1.96.
TGAGATAAGGTA: the binding signal (log2 normalized fluorescence) is -0.768.
The same measure for AGATACGCGGTA: -0.065.
The same measure for TGAGCTCTTGTA: -1.26.
The same measure for TGAAGCTGTGTA: -0.651; for TGTTGCGTGGTA: 2.18; for TGAACTGCAGTA: -0.412.
On to TGACGAGGCGTA, for which the binding signal (log2 normalized fluorescence) was -0.0721.
The same measure for TGACATAAAGTA: -0.158; for TGACACACTGTA: 1.41; for TGACCACGGGTA: 2.11.
The same measure for TGAAAAACTGTA: -0.789; for TGAACTTGTGTA: 0.39; for TGATCAAAAGTA: -0.852.
The same measure for TGACGGGAGGTA: -0.124.
In turn, TGAGCCTGGGTA showed a binding signal (log2 normalized fluorescence) of -0.402.
For TGAGTGGGGGTA, the binding signal (log2 normalized fluorescence) is 1.66.
The same measure for TGATTGCGTGTA: 0.971.
Turning to TGATATGAGGTA, the binding signal (log2 normalized fluorescence) was -0.61.
The same measure for TGTCATGTTGTA: 1.81.
Consider TGAGCACTAGTA, for which the binding signal (log2 normalized fluorescence) is -0.35.
The figure for ATAAAATTCAGC is -0.248.
For the sequence TGAGCAAGTGTA, the binding signal (log2 normalized fluorescence) turned out to be 0.167.
The same measure for GATGCGCGACCA: 0.871.
The same measure for TGAAAGTCAGTA: -0.325.
The figure for TGAACCTGCGTA is 0.0407; for TGACGAATGGTA it is -0.0333; for TGATCGCGCGTA it is 0.556.
Sequence TGAGCAACGGTA had a binding signal (log2 normalized fluorescence) of -0.288.
The same measure for TGACACTTTGTA: -0.0444.
Sequence TGAACGACCGTA registered a binding signal (log2 normalized fluorescence) of -0.159.
The figure for TGACACGTGAAG is 3.15.
The same measure for TGATTCGGGGTA: -0.577; for TGAGTACTAGTA: -0.902; for AGACATGGGGTA: 2.83.
The figure for TGACACGTGAGG is 3.37.
As for TGAATGCATGTA, the binding signal (log2 normalized fluorescence) was 1.7.
